These results are taken from PMC4336329 (PLoS ONE, 2015).

The campaign covered roughly 310,000 compounds. About 2,200 (0.71%) showed an effect of 50% or more. The effect is printed as a negative number. Some of the results follow.

Sequence of human ether-à-go-go-related gene (hERG) potassium channel (Q12809 whole entry, looked up): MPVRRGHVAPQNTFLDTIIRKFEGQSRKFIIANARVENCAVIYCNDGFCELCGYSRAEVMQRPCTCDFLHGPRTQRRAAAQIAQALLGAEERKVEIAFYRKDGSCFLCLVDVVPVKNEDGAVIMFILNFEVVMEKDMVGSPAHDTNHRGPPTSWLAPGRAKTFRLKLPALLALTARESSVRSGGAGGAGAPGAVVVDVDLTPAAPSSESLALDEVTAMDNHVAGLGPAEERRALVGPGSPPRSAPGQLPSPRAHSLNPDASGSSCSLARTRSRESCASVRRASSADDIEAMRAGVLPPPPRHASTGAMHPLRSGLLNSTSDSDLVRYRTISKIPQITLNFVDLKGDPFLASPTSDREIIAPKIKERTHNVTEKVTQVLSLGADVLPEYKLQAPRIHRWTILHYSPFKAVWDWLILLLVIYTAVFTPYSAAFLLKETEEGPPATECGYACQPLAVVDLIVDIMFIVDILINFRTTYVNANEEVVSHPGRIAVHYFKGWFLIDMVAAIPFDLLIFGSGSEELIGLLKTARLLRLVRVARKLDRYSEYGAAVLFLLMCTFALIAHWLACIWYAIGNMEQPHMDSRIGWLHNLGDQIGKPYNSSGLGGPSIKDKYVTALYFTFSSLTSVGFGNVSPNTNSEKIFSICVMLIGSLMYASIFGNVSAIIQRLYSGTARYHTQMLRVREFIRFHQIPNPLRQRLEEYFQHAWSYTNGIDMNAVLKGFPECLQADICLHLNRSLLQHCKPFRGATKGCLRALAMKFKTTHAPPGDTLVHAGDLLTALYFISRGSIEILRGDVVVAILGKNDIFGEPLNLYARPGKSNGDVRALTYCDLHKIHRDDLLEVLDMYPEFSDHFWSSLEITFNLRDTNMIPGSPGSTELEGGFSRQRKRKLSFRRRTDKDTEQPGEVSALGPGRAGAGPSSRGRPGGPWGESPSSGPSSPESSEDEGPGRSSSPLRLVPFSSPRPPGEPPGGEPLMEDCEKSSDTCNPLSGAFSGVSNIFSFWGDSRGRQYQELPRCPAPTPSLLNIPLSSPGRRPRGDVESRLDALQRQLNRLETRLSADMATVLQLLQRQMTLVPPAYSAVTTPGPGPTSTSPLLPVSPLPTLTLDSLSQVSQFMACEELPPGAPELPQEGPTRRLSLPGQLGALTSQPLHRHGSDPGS

This test concerns the target human ether-à-go-go-related gene (hERG) potassium channel (human, UniProt Q12809). As to the kind of experiment: primary screen, population patch clamp on CHO cells stably expressing hERG.
Take `CN(C)CCN1C(=O)C(=O)/C(=C(/O)c2ccc(S(=O)(=O)N3CCOCC3)cc2)C1c1ccc(Br)cc1` (stereo not shown): the “hERG current change (%, negative = inhibition) at 1uM” value is 7.44%.

For the compound `COc1cc(C(=O)OC2CSCC2NC(=O)c2ccccc2)cc(OC)c1OC` (stereo not shown), the “hERG current change (%, negative = inhibition) at 1uM” value worked out at 16.1%.

For `O=[N+]([O-])c1ccc(/C=C/c2ccc3cccc(O)c3n2)cc1`, the “hERG current change (%, negative = inhibition) at 1uM” value is given as 8.84%.

With `Cc1oc(-c2ccccc2F)nc1CN1CCC(C(=O)NC2CC2)CC1`, the “hERG current change (%, negative = inhibition) at 1uM” value came to 0.032%.

On to `CN(C(=O)c1ccc(-c2nn(C)c(=O)c3ccccc23)cc1)C1CCCCC1`, for which the “hERG current change (%, negative = inhibition) at 1uM” value is listed as -0.517%.

Turning to `CN(CC(=O)NC1CCCCCCC1)S(=O)(=O)c1cccc2cccnc12`, the “hERG current change (%, negative = inhibition) at 1uM” value was -7.56%.

In the case of `CC(NC(=O)c1ccc(-c2cc(C(F)(F)F)ccc2Cl)o1)c1ccccc1` (stereo not shown), the “hERG current change (%, negative = inhibition) at 1uM” value is reported as 10.3%.

With `CCOC(=O)/C(=N\Nc1ccccc1)P(=O)(c1ccccc1)c1ccccc1`, the “hERG current change (%, negative = inhibition) at 1uM” value stood at 1.99%.

As to `Cl.NCCNCCNCCN`, the “hERG current change (%, negative = inhibition) at 1uM” value came to 15.4%.

In the case of `O=C(C1CCN(S(=O)(=O)c2ccc(Cl)cc2)CC1)N1CCOCC1`, the “hERG current change (%, negative = inhibition) at 1uM” value amounted to 1.99%.

As to `CN(C)S(=O)(=O)c1cc(NC(=O)C2=COCCO2)ccc1Cl`, the “hERG current change (%, negative = inhibition) at 1uM” value is recorded as 11.7%.

In the case of `Cc1ccc(S(=O)(=O)N2Cc3ccccc3CC2C(=O)Nn2cnnc2)cc1` (stereo not shown), the “hERG current change (%, negative = inhibition) at 1uM” value is -6.44%.

With `O=C(Nc1nc(-c2ccccc2)cs1)c1ccc(Br)o1`, the “hERG current change (%, negative = inhibition) at 1uM” value is reported as 12.3%.

In the case of `CCCCc1nnc(NC(=O)CSc2nc(O)c(Cc3ccccc3)c(=O)[nH]2)s1`, the “hERG current change (%, negative = inhibition) at 1uM” value was 13.2%.

Turning to `COc1ccc(Cl)cc1NC(=O)CN1CCC(n2nnc3cc(F)ccc32)CC1`, the “hERG current change (%, negative = inhibition) at 1uM” value came to 12.4%.

As for `CCc1ccc(/C=C2/Sc3ccccc3N(CC(=O)NCCCOC)C2=O)cc1`, the “hERG current change (%, negative = inhibition) at 1uM” value came out at 11.3%.

On to `CCOc1cccc2sc(N(CCN(C)C)C(=O)CCS(=O)(=O)c3ccccc3)nc12.Cl`, for which the “hERG current change (%, negative = inhibition) at 1uM” value amounted to 7.1%.

On to `CN(c1ncc(C(F)(F)F)cc1Cl)n1cc(C(N)=O)c2ccccc2c1=O`, for which the “hERG current change (%, negative = inhibition) at 1uM” value is 3.75%.

Regarding `CC1S/C(=N\N=C\c2cccc([N+](=O)[O-])c2)N(C(C)(C)C)C1=O` (stereo not shown), the “hERG current change (%, negative = inhibition) at 1uM” value was 12.4%.

Take `CN1C/C(=C/c2cccnc2)C(=O)/C(=C/c2cccnc2)C1`: the “hERG current change (%, negative = inhibition) at 1uM” value is on record as -25.5%.

Consider `CCN(CC)S(=O)(=O)c1ccc2[nH]cc(C(=O)NCCN3CCCCCC3)c(=O)c2c1`, for which the “hERG current change (%, negative = inhibition) at 1uM” value was -8.03%.

As for `CC(=O)N1c2ccccc2-c2nc3ccccc3n2C1C` (stereo not shown), the “hERG current change (%, negative = inhibition) at 1uM” value was found to be 11.1%.

`Cc1cccc(N2C(=O)CC(N3CCN(c4ccc(Cl)cc4)CC3)C2=O)c1` (stereo not shown): the “hERG current change (%, negative = inhibition) at 1uM” value came out at 12.5%.

As to `COc1ccc(S(=O)(=O)NCCCCC(=O)O)cc1C(=O)O`, the “hERG current change (%, negative = inhibition) at 1uM” value is listed as 2.43%.

Take `COC(=O)c1sc(NC(=S)NC(=O)c2ccc(C)cc2)nc1C`: the “hERG current change (%, negative = inhibition) at 1uM” value amounted to 10.9%.

On to `CCC(CC)c1nnc(NC(=O)c2c(C)nn(Cc3ccccc3Cl)c2C)s1`, for which the “hERG current change (%, negative = inhibition) at 1uM” value was 9.35%.

On to `Cc1ccc(OCCC(=O)OCC(=O)NC(=O)NCc2ccccc2)cc1`, for which the “hERG current change (%, negative = inhibition) at 1uM” value is reported as 8.32%.

Consider `Br.COCCCN1Cc2ccccc2C1=N`, for which the “hERG current change (%, negative = inhibition) at 1uM” value was -0.473%.

Regarding `COc1ccccc1OCC(=O)N(Cc1nc(-c2ccccc2)no1)C(C)C`, the “hERG current change (%, negative = inhibition) at 1uM” value came out at 7.9%.

Turning to `O=C(Cc1cccc(NC(=O)C2CCN(C(=O)C3CCCC3)CC2)c1)Nc1cccc(C(=O)N2CCCC2)c1`, the “hERG current change (%, negative = inhibition) at 1uM” value came to 14.7%.

As to `COc1ccc(CCNC(=O)c2cc(-c3ccccn3)nc3c(Cl)cccc23)cc1OC`, the “hERG current change (%, negative = inhibition) at 1uM” value is listed as -0.734%.

As for `COc1ccc(/C(C)=N/OCC(=O)Nc2nc3ccccc3s2)cc1`, the “hERG current change (%, negative = inhibition) at 1uM” value is 5.56%.

On to `COc1ccc(C=O)cc1CSc1nnc(COc2cccc3cccnc23)o1`, for which the “hERG current change (%, negative = inhibition) at 1uM” value stood at 6.22%.

As to `COc1ccccc1CN1CC(C(=O)N(CCO)Cc2cccs2)CCC1=O` (stereo not shown), the “hERG current change (%, negative = inhibition) at 1uM” value came out at 18.9%.

As for `CCCN(C(=O)CCCSc1nc2ccccc2[nH]1)c1c(N)n(Cc2ccccc2)c(=O)[nH]c1=O`, the “hERG current change (%, negative = inhibition) at 1uM” value is on record as 8.5%.

As to `Cc1cccc(C(=O)Oc2cccc3c(O)cccc23)c1`, the “hERG current change (%, negative = inhibition) at 1uM” value is listed as 16.5%.

As to `CCc1nnc(SCc2cn3c(C)cc(C)nc3n2)n1N`, the “hERG current change (%, negative = inhibition) at 1uM” value is listed as 16.5%.

Consider `O=C(Nc1ccc(F)cc1)C1C2CCC3C(CCC21)C3(Cl)Cl` (stereo not shown), for which the “hERG current change (%, negative = inhibition) at 1uM” value is recorded as 14.5%.

Regarding `CC1CCN(C(=O)c2ccc(N3C(=O)c4ccccc4C3=O)cc2)CC1`, the “hERG current change (%, negative = inhibition) at 1uM” value turned out to be 15.2%.

Turning to `Cc1ccc2cccc(S(=O)(=O)n3nc(C)cc3C)c2n1`, the “hERG current change (%, negative = inhibition) at 1uM” value is reported as 7.96%.

`Cc1ccc(NC(=O)COc2ccccc2C#N)cc1S(=O)(=O)N1CCCCCC1`: the “hERG current change (%, negative = inhibition) at 1uM” value is on record as -11.9%.

In the case of `Cc1cc(C)cc(NC(=O)Nc2cccnc2)c1`, the “hERG current change (%, negative = inhibition) at 1uM” value worked out at 10.4%.

Consider `O=C(COC(=O)/C=C/c1ccc(Br)o1)Nc1ccccc1F`, for which the “hERG current change (%, negative = inhibition) at 1uM” value is recorded as 8.17%.
